PubChem BioAssay (Tox21)
This list was built around the results that the source calls inconclusive (neither active nor inactive); the mix of calls is not that of the screen. A call without a number means that no potency is given here. For some assays here: A potency beside an inconclusive call is a rough fit, not a confirmed value. Activity calls are given as the source filed them. Unless noted, calls come from the whole dose curve; as a rule, active = well fitted curve in the direction sought with a large enough effect in the repeat runs; inconclusive = weak or mixed curves; inactive = no such curve, though single readings can be large; an effect the other way counts as inactive or inconclusive.

What was measured:
[1] = qHTS assay to identify small molecule antagonists of the androgen receptor (AR) signaling pathway - cell viability counter screen (AID 743033; note: nearly all actives have a fitted effect of over 45% in size; note: potency is the fitted concentration of half-maximal effect); conditions: AR-bla HEK293 viability, CellTiter-Glo luminescence, 16 h; activity change, negative = cytotoxicity: at 58.5 µM (top of the series) unless noted
[2] = qHTS RealTime-Glo MT Cell Viability Assay in HEK293 cells - 0 hour (AID 1224880); note: top concentration of the series differs between compounds; nearly all actives have a fitted effect of over 45% in size
How it was run: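 Nonlytic bioluminescent viability monitoring. HEK293 at 600 cells/well with reagent; 5 h settle; compound transfer by pintool; plates held at 37 C and read at set time points.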

[3] = A CellTox Green Cytotoxicity Assay to monitor cytotoxicity in HepG2 cells - 0 hour (AID 1224882); note: potency is the fitted concentration of half-maximal effect; nearly all actives have a fitted effect of over 35% in size
How it was run: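 Real-time, homogeneous cytotoxicity readout: dead-cell DNA staining by CellTox Green in HepG2 monolayers, fluorescence measured at timed intervals up to 40 h of continuous compound exposure.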

[4] = qHTS assay to identify small molecule antagonists of the peroxisome proliferator-activated receptor gamma (PPARg) signaling pathway - cell viability counter screen (AID 743194); conditions: PPARg-bla HEK293H viability, CellTiter-Glo luminescence, 17 h, co-treated with 50 nM rosiglitazone; activity change, negative = cytotoxicity: at 62.6 µM (top of the series) unless noted; note: nearly all actives have a fitted effect of over 55% in size
How it was run: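 PPARg-UAS-bla HEK293H cells were plated, rested 5 h at 37 C, then treated with compounds plus rosiglitazone (50 nM final) for 17 h at 37 C; viability was then read by CellTiter-Glo luminescence after 30 min at room temperature.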

[5] = qHTS assay to identify small molecule agonists of the peroxisome proliferator-activated receptor delta (PPARd) signaling pathway - cell viability counter screen (AID 743211); conditions: PPARd-bla HEK293H viability, CellTiter-Glo luminescence, 17 h; activity change, negative = cytotoxicity: at 62.6 µM (top of the series) unless noted; note: nearly all actives have a fitted effect of over 55% in size; note: potency is the fitted concentration of half-maximal effect
How it was run: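 PPARd-bla HEK293H cells (3000/well) were pre-incubated 5 h at 37 C, then exposed to compound for 17 h at 37 C. After 2 h with LiveBLAzer substrate, CellTiter-Glo was added to the same wells; luminescence read after 30 min at room temperature.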

[6] = target: Voltage-gated inwardly rectifying potassium channel KCNH2 (Homo sapiens) (UniProt Q12809); experiment: Human Ether-a-go-go-Related Gene (hERG) channel small molecule antagonists: fluorescence cell-based qHTS assay (AID 1671200); note: nearly all actives have a fitted effect of over 50% in size; note: potency is the fitted concentration of half-maximal effect;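 for activity change, negative = inhibition: hERG-expressing U2OS cells given a thallium stimulus after FluxOR II dye loading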
How it was run: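 hERG-U2OS cells plated overnight at 37 C, loaded with FluxOR II dye 1 h at RT in dark; after 10 min, thallium stimulus added. Fluorescence (480/540 nm) read kinetically for 2 min at 1 s intervals.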

[7] = qHTS assay to identify small molecule agonists of the sonic hedgehog signaling (Shh) pathway - cell viability counter screen (AID 1259366); note: nearly all actives have a fitted effect of over 50% in size
How it was run: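 NIH/3T3-derived Gli1-Luc reporter cells, 2,000 per well, received compound after 4 h and were treated about 23 h at 37C. Viability measured in the same wells by CellTiter-Fluor fluorescence after 1 h.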

[8] = qHTS assay to identify small molecule agonists of the estrogen receptor alpha (ER-alpha) signaling pathway in the presence of an antagonist - cell viability counter screen (AID 1259386);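 note: cells exposed to compounds for 22 h at 37 °C before the viability read; nearly all actives have a fitted effect of over 30% in size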; note: potency is the fitted concentration of half-maximal effect
How it was run: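 Cells are starved of estrogens for 5 days in charcoal-stripped serum, seeded for 24hr and co-treated with ICI-182,780 (10.0nM final) and test compounds. After 22hr at 37C, viability is read as CellTiter-Fluor fluorescence.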

[9] = A CellTox Green Cytotoxicity Assay to monitor cytotoxicity in HEK293 cells - 24 hour (AID 1224875); note: nearly all actives have a fitted effect of over 45% in size; note: potency is the fitted concentration of half-maximal effect
How it was run: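 Cytotoxicity was tracked continuously in HEK293 cells by a DNA-binding dye excluded from viable cells. Compounds were transferred in DMSO 5 h after seeding; fluorescence was recorded at intervals up to 40 h.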

[10] = qHTS assay to identify small molecule antagonists of the estrogen receptor alpha (ER-alpha) signaling pathway using the BG1 cell line - cell viability counter screen (AID 743081); conditions: BG1Luc4E2 viability, CellTiter-Fluor, 22 h; activity change, negative = cytotoxicity: at 70.3 µM (top of the series) unless noted;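 note: compound given together with 17beta-estradiol as the ER stimulus; nearly all actives have a fitted effect of over 45% in size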
[11] = qHTS RealTime-Glo MT Cell Viability Assay in HepG2 cells - 8 hour (AID 1224873); note: nearly all actives have a fitted effect of over 55% in size; note: potency is the fitted concentration of half-maximal effect
How it was run: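 HepG2 cells mixed with RealTime-Glo MT reagents (NanoLuc plus cell-permeant prosubstrate) were seeded at 600 cells/well, incubated 5 h at 37 C/5% CO2, then pinned with compounds in DMSO; nonlytic luminescence tracked viability during 40 h treatment.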

[12] = qHTS assay to identify small molecule antagonists of the androgen receptor (AR) signaling pathway using the MDA cell line in the presence of 0.5 nM R1881 - cell viability counter screen (AID 1259242); note: nearly all actives have a fitted effect of over 45% in size
How it was run: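 Cytotoxicity toward MDA-kb2 cells is measured by CellTiter-Fluor live-cell protease fluorescence after 16 hr compound exposure at 37C in the presence of 0.5 nM R1881 stimulator.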

[13] = qHTS assay to identify small molecule antagonists of the androgen receptor (AR) signaling pathway using the MDA cell line - cell viability counter screen (AID 743041; note: nearly all actives have a fitted effect of over 45% in size); conditions: MDA-kb2 viability, CellTiter-Fluor, 16 h, cells co-treated with R1881 androgen agonist; viability change, negative = cytotoxic: at 70.3 µM (top of the series)
How it was run: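 Viability counter screen run alongside the AR antagonist reporter: cells seeded 5 h before compound, R1881 added, 16 h incubation at 37C without CO2, fluorescent CellTiter-Fluor signal quantified.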

[14] = qHTS assay to identify small molecule antagonists of the thyroid receptor (TR) signaling pathway (AID 743065); note: nearly all actives have a fitted effect of over 55% in size
How it was run: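 GH3.TRE-Luc rat pituitary cells carrying two TR response elements driving luciferase were plated for 4 h, given compound plus 1 nM T3 (final), and incubated 23.5 h at 37 C. ONE-Glo luminescence measured reporter inhibition; CellTiter-Fluor fluorescence tracked cytotoxicity.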

[15] = qHTS assay to identify small molecule antagonists of the estrogen receptor beta (ER-beta) signaling pathway - cell viability counter screen (AID 1259382)
How it was run: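 Following a 6 hr plating period, HEK293T cells carrying a UAS-driven beta-lactamase reporter under ER-beta control received compounds and 1nM E2 (final). After 16 hr at 37C and 2 hr substrate loading, CellTiter-Glo luminescence indicated viability.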

[16] = qHTS assay to identify small molecule agonists of the TGF-beta/Smad signaling pathway (AID 1346859; active = well fitted activation curve with a large enough effect in the signal ratio in the repeat runs, not every such curve was filed as active; inconclusive = weak or mixed curves; the % refers to the signal ratio; note: potency is the fitted concentration of half-maximal effect)
How it was run: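 SBE-bla HEK293T cells plated overnight, then compound exposure for 5 h at 37 C. Beta-lactamase reporter read with LiveBLAzer B/G FRET substrate after 2 h at room temperature, fluorescence at 405 nm excitation, 460/530 nm emission.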

[17] = qHTS assay to identify small molecule antagonists of the sonic hedgehog signaling (Shh) pathway - cell viability counter screen (AID 1259367); note: nearly all actives have a fitted effect of over 55% in size
How it was run: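 After a 4 hr settling period, 3T3 Gli1-Luc cells were treated with DMSO-dissolved chemicals and conditioned medium, kept 24 hr at 37C in 5% CO2, and assayed for viability by CellTiter-Fluor fluorescence following 1 hr reagent incubation.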

[18] = target: Progesterone receptor (Homo sapiens) (UniProt P06401); experiment: qHTS assay to identify small molecule agonists of the progesterone receptor (PR) signaling pathway (AID 1346784; calls by dose curve; note: nearly all actives have a fitted effect of over 30% in size); conditions: PR-UAS-bla HEK293T, beta-lactamase FRET ratio, 16 h; activation: at 92.4 µM (top of the series) unless noted
How it was run: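 PR-UAS-bla HEK 293T cells (beta-lactamase reporter under UAS) in 2% charcoal-stripped FBS, dosed with 23 nL compound after 6 hr, incubated 16hr at 37C. LiveBLAzer B/G FRET substrate added, fluorescence read after 2 hours.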

[19] = Caspase-3/7 induction in HepG2 cells by small molecules, qHTS cell viability counter screen (AID 1346981); note: potency is the fitted concentration of half-maximal effect; nearly all actives have a fitted effect of over 30% in size
How it was run: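 Steps: seed 2,000 HepG2 cells per well; incubate 5 hr at 37 C; pin-add compounds in DMSO; incubate 16 hr; add CellTiter-Fluor; after 1 hr at 37 C and 5% CO2, read fluorescence.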
Tags give direction and shape of the fitted curve or compound fluorescence and quenching.

UniProt Q12809, sequence (Q12809 whole entry, looked up): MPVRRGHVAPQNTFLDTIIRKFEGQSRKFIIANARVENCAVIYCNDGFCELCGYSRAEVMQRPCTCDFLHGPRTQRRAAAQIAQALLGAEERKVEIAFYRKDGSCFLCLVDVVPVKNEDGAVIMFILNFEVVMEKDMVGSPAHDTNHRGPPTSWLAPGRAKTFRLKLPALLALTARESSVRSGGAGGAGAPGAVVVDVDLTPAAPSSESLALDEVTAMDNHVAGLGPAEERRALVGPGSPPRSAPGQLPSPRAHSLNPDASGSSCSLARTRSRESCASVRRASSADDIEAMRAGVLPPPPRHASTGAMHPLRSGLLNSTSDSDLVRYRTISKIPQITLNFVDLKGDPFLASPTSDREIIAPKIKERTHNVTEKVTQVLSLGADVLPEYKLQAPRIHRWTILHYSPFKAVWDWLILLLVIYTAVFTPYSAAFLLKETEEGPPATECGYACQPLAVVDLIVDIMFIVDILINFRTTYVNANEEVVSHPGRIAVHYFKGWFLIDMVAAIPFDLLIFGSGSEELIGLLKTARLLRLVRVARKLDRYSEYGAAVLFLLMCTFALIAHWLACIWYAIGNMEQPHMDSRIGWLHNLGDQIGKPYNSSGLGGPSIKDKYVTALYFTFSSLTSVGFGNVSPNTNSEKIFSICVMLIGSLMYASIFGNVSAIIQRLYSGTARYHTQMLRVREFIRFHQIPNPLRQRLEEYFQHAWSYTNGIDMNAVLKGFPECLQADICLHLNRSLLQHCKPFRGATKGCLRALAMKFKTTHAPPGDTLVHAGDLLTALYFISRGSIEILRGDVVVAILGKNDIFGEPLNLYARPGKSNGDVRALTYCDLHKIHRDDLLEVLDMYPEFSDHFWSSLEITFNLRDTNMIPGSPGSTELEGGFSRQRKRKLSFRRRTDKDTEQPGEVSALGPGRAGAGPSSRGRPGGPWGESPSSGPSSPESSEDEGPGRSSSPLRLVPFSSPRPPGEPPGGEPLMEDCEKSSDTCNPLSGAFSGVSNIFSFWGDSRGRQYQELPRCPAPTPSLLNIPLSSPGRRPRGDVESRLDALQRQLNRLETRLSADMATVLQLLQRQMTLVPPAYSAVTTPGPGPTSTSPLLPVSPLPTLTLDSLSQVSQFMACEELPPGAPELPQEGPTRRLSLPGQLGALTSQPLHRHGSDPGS
UniProt P06401, sequence (P06401 whole entry, looked up): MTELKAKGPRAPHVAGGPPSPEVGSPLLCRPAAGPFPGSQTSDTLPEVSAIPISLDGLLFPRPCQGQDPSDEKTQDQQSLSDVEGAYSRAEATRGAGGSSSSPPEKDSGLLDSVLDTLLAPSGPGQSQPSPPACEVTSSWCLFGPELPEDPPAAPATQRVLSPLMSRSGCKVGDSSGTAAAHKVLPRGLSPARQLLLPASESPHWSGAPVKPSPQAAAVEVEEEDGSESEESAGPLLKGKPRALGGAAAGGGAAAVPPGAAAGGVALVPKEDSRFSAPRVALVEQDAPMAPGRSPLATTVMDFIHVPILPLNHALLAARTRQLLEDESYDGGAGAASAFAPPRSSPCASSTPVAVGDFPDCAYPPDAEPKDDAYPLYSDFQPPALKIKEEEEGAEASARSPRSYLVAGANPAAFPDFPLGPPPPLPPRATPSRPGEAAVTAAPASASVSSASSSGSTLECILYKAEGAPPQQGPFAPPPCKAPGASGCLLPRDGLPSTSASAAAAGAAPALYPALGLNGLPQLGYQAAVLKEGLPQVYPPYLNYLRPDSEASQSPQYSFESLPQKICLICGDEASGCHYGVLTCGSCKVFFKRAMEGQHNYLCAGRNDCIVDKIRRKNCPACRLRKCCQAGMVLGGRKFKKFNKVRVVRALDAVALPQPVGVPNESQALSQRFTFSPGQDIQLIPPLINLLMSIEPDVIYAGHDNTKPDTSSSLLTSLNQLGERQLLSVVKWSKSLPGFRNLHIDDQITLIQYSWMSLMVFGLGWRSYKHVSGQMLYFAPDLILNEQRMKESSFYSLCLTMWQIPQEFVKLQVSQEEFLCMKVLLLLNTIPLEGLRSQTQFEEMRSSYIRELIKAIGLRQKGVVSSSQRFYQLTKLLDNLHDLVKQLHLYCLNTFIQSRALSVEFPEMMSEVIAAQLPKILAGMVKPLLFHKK

## Cc1cccc(C)c1NC(=O)CC12CCCN1CCC2
[1]
  Potency: inconclusive: 0.0076 µM [cytotoxic, full curve, poor fit]
[2]
  Potency: inactive
[3]
  Potency: inconclusive: 26.8 µM [activator, single point]

## Cc1nc2n(c(=O)c1CCN1CCC(C(=O)c3ccc(F)cc3)CC1)CCS2
[4]
  Potency: inactive
[5]
  Potency: inconclusive: 7.5 µM [cytotoxic, single point]
[6]
  Potency: active: 9.52 µM

## Cc1cccc(C)c1O
[7]
  Potency: inactive
[8]
  Potency: inactive

## CS(C)(=O)=O
[9]
  Potency: inconclusive: 21.9 µM [activator, single point]

## COC(=O)CCCC(=O)O
[10]
  Potency: inactive
[8]
  Potency: inconclusive: 2.73 µM [cytotoxic, single point]

## CC(C)(C)c1cc(CCC(=O)OCCSCCOC(=O)CCc2cc(C(C)(C)C)c(O)c(C(C)(C)C)c2)cc(C(C)(C)C)c1O
[11]
  Potency: inconclusive: 21.3 µM [falling, partial curve, poor fit]

## CCCCCCCCOCCC#N
[12]
  Potency: inactive

## O=C(O)CCC(=O)O
[11]
  Potency: inactive

## Nc1nc(=O)n([C@@H]2O[C@H](CO)[C@@H](O)[C@@H]2F)cc1I
[6]
  Potency: inactive

## Nc1cc(Cl)cc(S(=O)(=O)O)c1O
[9]
  Potency: inconclusive: 40 µM [activator, partial curve, poor fit]

## Cc1nc(C2CCCCC2)c(-c2ccc(S(N)(=O)=O)c(F)c2)o1
[11]
  Potency: inconclusive: 26.8 µM [falling, single point]
[3]
  Potency: inconclusive: 8.49 µM [activator, partial curve, poor fit]

## CC(C)(C)c1nnc(NS(=O)(=O)c2ccccc2)s1
[13]
  Potency: inactive
[14]
  Potency: inactive

## Cc1ccc(C(=O)c2ccc(CC(=O)O)n2C)cc1
[1]
  Potency: inconclusive: 1.02 µM [cytotoxic, full curve, poor fit]
[3]
  Potency: inconclusive: 26.8 µM [activator, single point]
[15]
  Potency: inactive
[16]
  Potency: inconclusive: 26.8 µM [rising, partial curve, poor fit]

## CNC[C@H](O)c1cccc(O)c1
[13]
  Potency: inactive

## CCC(C)(Oc1ccc(C2(c3ccc(OC(C)(CC)C(=O)O)cc3)CCCCC2)cc1)C(=O)O (centres undefined)
[9]
  Potency: inactive

## C[N+]1([O-])CCOCC1
[1]
  Potency: inactive
[5]
  Potency: inactive
[7]
  Potency: inactive
[17]
  Potency: inactive

## CCC(=O)CC(C)CC (centres undefined)
[9]
  activity change: inactive: 8.11% [at 0.29 µM, hits give high values]
[6]
  activity change, negative = inhibition: inactive: 2.31% [at 0.29 µM]

## C[C@@H]1CCC[C@H](C)N1
[5]
  Potency: inactive
[17]
  Potency: inactive
[16]
  Potency: inactive

## O=C(O)c1cc(C(=O)O)cc([N+](=O)[O-])c1
[2]
  Potency: inactive
[7]
  Potency: inactive
[8]
  Potency: inactive

## O=S(=O)(O)c1cc(O)ccc1O
[18]
  Potency: inactive

## O=S1(=O)N=C(O)c2ccccc21
[1]
  Potency: inactive
[19]
  Potency: inconclusive: 12.3 µM [rising, partial curve, poor fit]

## CC(C)CCO
[11]
  Potency: inconclusive: 21.9 µM [falling, single point]

## C=C(C)C(=O)OCCOC1CC2CC1C1C=CCC21 (centres undefined)
[5]
  Potency: inactive
[6]
  Potency: inconclusive: 46.9 µM [inhibitor, partial curve]
